Experimental data published in the supplement of paper PMC8728848.
The other results are listed elsewhere or left out.

How the values were obtained:
Test in all cases: glycan array binding signal (z-score within array); higher = stronger binding
Conditions in all cases: glycan notation: IUPAC condensed, linker removed
[1] = biological target: Fuc(a1-2)[GalNAc(a1-3)]Gal(b1-4)[Fuc(a1-3)]GlcNAc
Method in brief: (§1)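 Columns mapping to the same glycan were averaged after glycan names were converted to IUPAC-condensed notation. The data come from 3228 arrays in the Consortium for Functional Glycomics database, limited to those with an available protein sequence. Binding is reported as a within-array Z-score averaged across arrays of one protein sequence and across linkers.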

[2] = biological target: Fuc(a1-2)[GalNAc(a1-4)]Gal(b1-4)GlcNAc
Method in brief: as §1

[3] = biological target: Fuc(a1-2)[GalNAc(b1-3)]Gal
Method in brief: as §1

[4] = biological target: Fuc(a1-3)GlcNAc
Method in brief: as §1

[5] = biological target: Fuc(a1-3)[Gal(b1-4)]Glc6S
Method in brief: as §1

[6] = biological target: Fuc(a1-3)[Gal(b1-4)]GlcNAc
Method in brief: as §1

[7] = biological target: Fuc(a1-3)[Gal(b1-4)]GlcNAc(b1-2)Man(a1-3)[Fuc(a1-3)[Gal(b1-4)]GlcNAc(b1-2)Man(a1-6)]Man(b1-4)GlcNAc(b1-4)GlcNAc
Method in brief: as §1

[8] = biological target: Fuc(a1-3)[Gal(b1-4)]GlcNAc(b1-2)Man(a1-6)[Gal(b1-4)GlcNAc(b1-2)Man(a1-3)]Man(b1-4)GlcNAc(b1-4)GlcNAc
Method in brief: as §1

[9] = biological target: Fuc(a1-3)[Gal(b1-4)]GlcNAc(b1-3)Gal(b1-3)[Fuc(a1-4)]GlcNAc
Method in brief: as §1

[10] = biological target: Fuc(a1-3)[Gal(b1-4)]GlcNAc(b1-4)Gal(b1-4)[Fuc(a1-3)]GlcNAc
Method in brief: as §1

[11] = biological target: Fuc(a1-3)[Gal(b1-4)]GlcNAc(b1-4)Gal(b1-4)[Fuc(a1-3)]GlcNAc(b1-4)Gal(b1-4)[Fuc(a1-3)]GlcNAc
Method in brief: as §1

[12] = biological target: Fuc(a1-3)[Gal(b1-4)]GlcNAc6S
Method in brief: as §1

[13] = biological target: Fuc(a1-3)[Gal3S(b1-4)]Glc6S
Method in brief: as §1

[14] = biological target: Fuc(a1-3)[Gal3S(b1-4)]GlcNAc
Method in brief: as §1

[15] = biological target: Fuc(a1-3)[Gal3S(b1-4)]GlcNAc6S
Method in brief: as §1

[16] = biological target: Fuc(a1-3)[GalNAc(b1-4)]GlcNAc
Method in brief: as §1

[17] = biological target: Fuc(a1-4)GlcNAc
Method in brief: as §1

[18] = biological target: Fuc(b1-3)GlcNAc
Method in brief: as §1

[19] = biological target: Gal(a1-2)Gal
Method in brief: as §1

[20] = biological target: Gal(a1-3)Gal
Method in brief: as §1

[21] = biological target: Gal(a1-3)Gal(b1-3)GlcNAc
Method in brief: as §1

[22] = biological target: Gal(a1-3)Gal(b1-4)Glc
Method in brief: as §1

[23] = biological target: Gal(a1-3)Gal(b1-4)GlcNAc
Method in brief: as §1

[24] = biological target: Gal(a1-3)Gal(b1-4)[Fuc(a1-3)]GlcNAc
Method in brief: as §1

[25] = biological target: Gal(a1-3)GalNAc
Method in brief: as §1

[26] = biological target: Gal(a1-3)[Gal(a1-4)]Gal(b1-4)GlcNAc
Method in brief: as §1

[27] = biological target: Gal(a1-4)Gal(b1-4)Glc
Method in brief: as §1

[28] = biological target: Gal(a1-4)Gal(b1-4)GlcNAc
Method in brief: as §1

[29] = biological target: Gal(a1-4)GlcNAc
Method in brief: as §1

[30] = biological target: Gal(a1-6)Glc
Method in brief: as §1

[31] = biological target: Gal(b1-2)Gal
Method in brief: as §1

[32] = biological target: Gal(b1-3)Gal
Method in brief: as §1

[33] = biological target: Gal(b1-3)Gal(b1-4)GlcNAc
Method in brief: as §1

[34] = biological target: Gal(b1-3)GalNAc
Method in brief: as §1

[35] = biological target: Gal(b1-3)GalNAc(b1-3)Gal(a1-4)Gal(b1-4)Glc
Method in brief: as §1

[36] = biological target: Gal(b1-3)GalNAc(b1-4)Gal(b1-4)Glc
Method in brief: as §1

[37] = biological target: Gal(b1-3)GalNAc(b1-4)[Neu5Ac(a2-3)]Gal(b1-4)Glc
Method in brief: as §1

[38] = biological target: Gal(b1-3)GlcNAc
Method in brief: as §1

[39] = biological target: Gal(b1-3)GlcNAc(b1-2)Man(a1-3)[Gal(b1-3)GlcNAc(b1-2)Man(a1-6)]Man(b1-4)GlcNAc(b1-4)GlcNAc
Method in brief: as §1

[40] = biological target: Gal(b1-3)GlcNAc(b1-3)Gal(b1-3)GlcNAc
Method in brief: as §1

[41] = biological target: Gal(b1-3)GlcNAc(b1-3)Gal(b1-4)Glc
Method in brief: as §1

[42] = biological target: Gal(b1-3)GlcNAc(b1-3)Gal(b1-4)GlcNAc
Method in brief: as §1

[43] = biological target: Gal(b1-3)[Fuc(a1-4)]GlcNAc
Method in brief: as §1

[44] = biological target: Gal(b1-3)[Fuc(a1-4)]GlcNAc(b1-3)Gal(b1-3)[Fuc(a1-4)]GlcNAc
Method in brief: as §1

[45] = biological target: Gal(b1-3)[Fuc(a1-4)]GlcNAc(b1-3)Gal(b1-4)GlcNAc
Method in brief: as §1

[46] = biological target: Gal(b1-3)[Fuc(a1-4)]GlcNAc(b1-3)Gal(b1-4)[Fuc(a1-3)]GlcNAc
Method in brief: as §1

[47] = biological target: Gal(b1-3)[GlcNAc(b1-6)]GalNAc
Method in brief: as §1

[48] = biological target: Gal(b1-3)[Neu5Ac(a2-6)]GalNAc
Method in brief: as §1

[49] = biological target: Gal(b1-3)[Neu5Ac(a2-6)]GlcNAc(b1-6)Gal(b1-4)Glc
Method in brief: as §1

[50] = biological target: Gal(b1-3)[Neu5Ac(b2-6)]GalNAc
Method in brief: as §1

[51] = biological target: Gal(b1-4)GalNAc(a1-3)[Fuc(a1-2)]Gal(b1-4)GlcNAc
Method in brief: as §1

[52] = biological target: Gal(b1-4)GalNAc(b1-3)[Fuc(a1-2)]Gal(b1-4)GlcNAc
Method in brief: as §1

[53] = biological target: Gal(b1-4)Glc
Method in brief: as §1

[54] = biological target: Gal(b1-4)Glc6S
Method in brief: as §1

[55] = biological target: Gal(b1-4)GlcNAc
Method in brief: as §1

[56] = biological target: Gal(b1-4)GlcNAc(a1-6)Gal(b1-4)GlcNAc
Method in brief: as §1

[57] = biological target: Gal(b1-4)GlcNAc(b1-2)Man(a1-3)[Gal(b1-4)GlcNAc(b1-2)Man(a1-6)]Man(b1-4)GlcNAc(b1-4)GlcNAc
Method in brief: as §1

[58] = biological target: Gal(b1-4)GlcNAc(b1-3)Gal(b1-3)GlcNAc
Method in brief: as §1

[59] = biological target: Gal(b1-4)GlcNAc(b1-3)Gal(b1-4)Glc
Method in brief: as §1

[60] = biological target: Gal(b1-4)GlcNAc(b1-3)Gal(b1-4)GlcNAc
Method in brief: as §1

B1: NESD (Drosophila melanogaster), NP_610025.1 (protein)
chain: MGHHHHHHSSGVDLGTENLYFQSMMEVFTFEKSYLERLKEAEAVLSWEGAVMPASQVRSEWKSYVELKIEPAGWQAIWKIPRVICEDLKLRYPTIVYGYVEQVIFDELKAVFVVTAVQDSDVHLPESNEVSLVELWPTVQQENAALNVDTTAECIDRLRFFYTHVWMPWDKDYDDDRDWVQQHLQARIQLVCDLSKNRLPRPLALHMRTLLAEAKYIQQRLDYLELDLSDAESDDEAVELNDSVAEPARKQSKAGSANGCLNVSSLPVTDLMCLHLRMAIIRSEFEILENPEMRRAYSELQSNSLKRLRCSSGRTRQSEDLLVERNSISHVVTLPGKLQQQLELLKLAQTLVKPESKVQLSNTLQDVLSICQSNDDILLSPGEHTIKFLEHLNDNGSLRGLTQPEAILSPAADLSLLPVVCSSDEDSTLLVIDGDYTLSELVLDCRHVRRGILLRNGTLTMRGCRLLGDGSSSTQEGIVCMPGASVELKSCLIENFAVGVSMRPKSSAELGSVQFKTCKTGLELLEKSASVNLQGSKCSFENCALGILADGFVLGEQRTEKVLVLNKFSELQRYNEDNLLGNCSFYNCKKNVRVFNESGQLLAQRSHQQLLEDELGGENKENIQLV
- glycan array binding signal (z-score) [1]: -0.127
- glycan array binding signal (z-score) [2]: -0.307
- glycan array binding signal (z-score) [3]: -0.255
- glycan array binding signal (z-score) [4]: -0.095
- glycan array binding signal (z-score) [5]: 0.613
- glycan array binding signal (z-score) [6]: -0.33
- glycan array binding signal (z-score) [7]: -0.092
- glycan array binding signal (z-score) [8]: -0.6
- glycan array binding signal (z-score) [9]: -0.24
- glycan array binding signal (z-score) [10]: -0.078
- glycan array binding signal (z-score) [11]: -0.515
- glycan array binding signal (z-score) [12]: 0.043
- glycan array binding signal (z-score) [13]: 0.672
- glycan array binding signal (z-score) [14]: 0.229
- glycan array binding signal (z-score) [15]: 1.18
- glycan array binding signal (z-score) [16]: -0.514
- glycan array binding signal (z-score) [17]: -0.117
- glycan array binding signal (z-score) [18]: 0.021
- glycan array binding signal (z-score) [19]: -0.013
- glycan array binding signal (z-score) [20]: -0.269
- glycan array binding signal (z-score) [21]: -0.304
- glycan array binding signal (z-score) [22]: -0.126
- glycan array binding signal (z-score) [23]: -0.108
- glycan array binding signal (z-score) [24]: -0.573
- glycan array binding signal (z-score) [25]: -0.191
- glycan array binding signal (z-score) [26]: -0.494
- glycan array binding signal (z-score) [27]: -0.242
- glycan array binding signal (z-score) [28]: -0.141
- glycan array binding signal (z-score) [29]: 0.161
- glycan array binding signal (z-score) [30]: -0.36
- glycan array binding signal (z-score) [31]: 0.961
- glycan array binding signal (z-score) [32]: 0.646
- glycan array binding signal (z-score) [33]: 0.487
- glycan array binding signal (z-score) [34]: 0.704
- glycan array binding signal (z-score) [35]: -0.112
- glycan array binding signal (z-score) [36]: 0.482
- glycan array binding signal (z-score) [37]: -0.161
- glycan array binding signal (z-score) [38]: -0.219
- glycan array binding signal (z-score) [39]: -0.613
- glycan array binding signal (z-score) [40]: -0.584
- glycan array binding signal (z-score) [41]: 0.27
- glycan array binding signal (z-score) [42]: -0.14
- glycan array binding signal (z-score) [43]: -0.017
- glycan array binding signal (z-score) [44]: -0.192
- glycan array binding signal (z-score) [45]: -0.241
- glycan array binding signal (z-score) [46]: -0.47
- glycan array binding signal (z-score) [47]: -0.273
- glycan array binding signal (z-score) [48]: -0.31
- glycan array binding signal (z-score) [49]: -0.315
- glycan array binding signal (z-score) [50]: -0.382
- glycan array binding signal (z-score) [51]: -0.37
- glycan array binding signal (z-score) [52]: -0.195
- glycan array binding signal (z-score) [53]: 3.98
- glycan array binding signal (z-score) [54]: 2.75
- glycan array binding signal (z-score) [55]: -0.379
- glycan array binding signal (z-score) [56]: -0.476
- glycan array binding signal (z-score) [57]: -0.591
- glycan array binding signal (z-score) [58]: 0.385
- glycan array binding signal (z-score) [59]: 0.671
- glycan array binding signal (z-score) [60]: 0.201
